According to PubChem BioAssay AID652104 (National Center for Advancing Translational Sciences (NCATS), 2013):
Among all 410,000 compounds or so, about 7,200 (1.8%) were called active. The shares of active, inactive and inconclusive entries below differ from those in the screen. Calls come from the whole dose curve; as a rule, active = well fitted activation curve with a large enough effect; inconclusive = small, poorly fitted or top-dose-only effect, or another doubt; inactive = no such curve, though single readings can be large or run the other way. Potencies of inconclusive entries are doubtful fits and often do not repeat.

experiment: qHTS of TDP-43 Inhibitors; details: TDP-43 expressing yeast growth rescue, BacTiter-Glo, 24 h; growth rescue (activation): at 46.1 µM (top of the series) unless noted; note: nearly all actives have a fitted effect of over 50% in size; for growth rescue (activation): % of control where 0% means no effect
Procedure, shortened: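 Growth rescue of TDP-43-toxic yeast measured as ATP luminescence (BacTiter-Glo). Cells grown to mid-log in raffinose, induced in galactose at OD600=0.02, exposed to compound 24 hr at 30 deg C.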
Potency is the fitted concentration of half-maximal effect; tags give direction and shape of the fitted curve.

Potency, inactive:
CN(C)S(=O)(=O)Oc1ccccc1C(=O)Nc1cccc(C(F)(F)F)c1
O=C(NCc1cccs1)C1CCN(C(=O)N2CCOc3ccccc32)CC1
O=C(Nc1nnc(COc2ccc(Cl)cc2)s1)c1cccs1
COC(=O)C(C(=O)OC)=C(/C=C/N(C)C)N(C)C
C=CCCC(=O)N1CCC(CCC(=O)NC2CC2)CC1
CCOC(=O)c1cc(OC(=O)c2ccc(Cl)cc2)n(-c2ccccc2)n1
Cc1ccc(N(CC(=O)N2CCN(c3ccc(Cl)cc3)CC2)S(=O)(=O)c2c(C)noc2C)cc1
Cc1cc(Cl)c(S(=O)(=O)NCc2cccnc2)cc1OCC(=O)NC1CCCCC1
CCOc1ccccc1CNC(=O)c1cnc2sc(N3CCCC3)nn2c1=O

Potency, inconclusive:
COc1cccc(CC(=O)OCC(=O)N2CCN(c3ccc(F)cc3)CC2)c1 15.8 µM [activator, partial curve]
Cc1c(C)c2ccc(OCC(=O)N3CCN(c4cccc(Cl)c4)CC3)cc2oc1=O 28.2 µM [activator, partial curve]
COC(=O)c1ccc(Cl)cc1NC(=O)N(C)CCc1c(C)nn(C)c1C 7.94 µM [activator, partial curve]
CCOc1ccc(NC(=O)C(=O)NCCc2csc3nc(-c4ccccc4F)nn23)cc1 7.08 µM [activator, full curve, poor fit]
O=C(COc1ccccc1Cl)Nc1cnn(Cc2ccccc2)c1 35.5 µM [activator, partial curve]
O=C(O)c1cnn(-c2ccccc2)c1-n1cccc1 35.5 µM [activator, single point]
Cc1ccccc1NC(=O)CCn1c(=O)oc2ccccc21 14.1 µM [activator, partial curve]
CC(=O)c1sc(N)c(C(=O)OC(C)C)c1C 8.91 µM [activator, partial curve]
Cc1cccc(N2CCN(c3nc4ccccc4c(=O)n3-c3ccc(Cl)cc3)CC2)c1C 5.01 µM [activator, partial curve]
Cc1ccc(C)c(S(=O)(=O)NCC(c2ccco2)S(=O)(=O)c2ccc(F)cc2)c1 (stereo not drawn) 1.12 µM [activator, full curve]
C/C(=N\NC(=O)c1ccc(-c2ccccc2)cc1)c1cccc(N)c1 35.5 µM [activator, single point]
COc1ccc(NS(=O)(=O)c2c(C)n(C)c(=O)n(C)c2=O)cc1OC 0.891 µM [activator, full curve]
Cc1cc2ccccn2c1C(=O)c1nc(NCc2ccccc2)ncc1Cl 6.31 µM [activator, single point]
O=C(NC(=S)NC1CCCC1)c1ccccc1 12.6 µM [activator, partial curve]
c1ccc2c(c1)ncn2CCCOc1ccc2c(c1)CCC2 14.1 µM [activator, single point]
COc1ccc(C(C)=O)cc1COC(=O)c1ccc(N)c([N+](=O)[O-])c1 3.16 µM [activator, partial curve]
COc1ccccc1NC(=O)CN1C(=O)c2cccc3cccc1c23 35.5 µM [activator, single point]
NC(Cc1ccc(C(F)(F)F)cc1)c1csc(NC(=O)Nc2ccccc2Cl)n1 (stereo not drawn) 6.31 µM [activator, full curve]
Cc1cc(=O)oc2cc(Oc3ccc([N+](=O)[O-])cc3[N+](=O)[O-])ccc12 12.6 µM [activator, single point]
COc1cc2c(cc1OC)C(C)N(C(=O)c1cc3c(s1)-c1ccccc1OC3)CC2 (stereo not drawn) 12.6 µM [activator, partial curve]
COc1ccc(C2NC(=O)c3c(sc4c3CCN(C)C4)N2)cc1O (stereo not drawn) 35.5 µM [activator, partial curve]
C=C(C)COc1ccc2c(C)c(CC(=O)OC)c(=O)oc2c1C 35.5 µM [activator, single point]
CCc1cccc(C)c1N=Cc1c(O)c2ccccc2oc1=O 12.6 µM [activator, single point]
CCOc1ccc(-n2nc3cc(C)c(NC(=O)CC)cc3n2)cc1 6.31 µM [activator, partial curve, poor fit]
Oc1ccccc1N1CCN(c2ncnc3sc(-c4ccccc4)cc23)CC1 17.8 µM [activator, single point]
NS(=O)(=O)c1ccc(N2N=C(c3ccccc3)CC2c2ccc(Br)cc2)cc1 (stereo not drawn) 35.5 µM [activator, single point]
CC(C)Cc1ccc(-c2cc3nc(NCCCn4ccnc4)ccn3n2)cc1 20 µM [activator, partial curve]
Cc1nc(NC(C)c2ccccc2)sc1C(=O)Nc1ccccc1 (stereo not drawn) 5.62 µM [activator, single point]
CCn1nccc1C(=O)Nc1ccc(C(=O)OC(C)C)cc1 28.2 µM [activator, partial curve]
CCOCCCn1c(SCC(=O)Nc2cccc(OC)c2)nc2ccccc2c1=O 31.6 µM [activator, single point]

Potency, active:
CCOC(=O)c1ccc(NC(=O)c2csc3c2CCCCC3)cc1 20 µM
CC1C(=O)N(Cc2cn(Cc3ccco3)nn2)CCS(=O)(=O)N1Cc1ccc(-c2ccc(Cl)cc2)cc1 (stereo not drawn) 35.5 µM
Cn1cc(C(C[N+](=O)[O-])c2ccccc2)c2ccccc21 (stereo not drawn) 12.6 µM

Growth rescue (activation), inconclusive:
Cc1cccc(CN2C(=O)CC(c3ccc(Cl)cc3)c3c(C)nn(-c4nc(C)cc(C)n4)c32)c1 (stereo not drawn) 36.4% [activator] [at 9.22 µM]
